Data from the supplement of paper PMC10338343.
± gives the standard deviation. The entries are a selection whose mix differs from that of the whole data set.

System: MIWI (PIWIL1) piRISC loaded with L1MC piRNA (30 nt)
Test: pre-steady-state target cleavage rate (min^-1); MIWI and MILI are mouse PIWI proteins and EfPiwi is from a freshwater sponge; tags in brackets are library labels; higher = faster piRNA-guided slicing of the target
Details: guide: L1MC piRNA 5'p-UAACUAAAUACUAUGCAAGCUGUAGGUCCU
How it was run: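 For Cleave-'n-Seq, a transcribed, DNA-blocked target RNA library […] met 1 nM active affinity-purified piRISC with one synthetic guide at 33 °C for 0–8 or 0–960 min in HEPES–potassium acetate buffer, with or without 500 nM GTSF1 partner protein. Uncleaved targets were sequenced and normalised to depth and weakly complementary targets, with three trials pooled and k3 capped at 0.0001 min^-1. A burst-and-steady-state fit supplied the pre-steady-state cleavage rate.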

[1] = auxiliary factor: 500 nM mouse GTSF1
[2] = auxiliary factor: none (no GTSF1)
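Further: 1 nM active piRISC with 0.1 nM target library at 33 °C single turnover.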

| Sequence | pre-steady-state target cleavage rate [1] | pre-steady-state target cleavage rate [2] |
| --- | --- | --- |
| UCCUGGUACAGCUUGCUUACUAUUUAGUUA | 0.236 ± 0.033 | 0.0131 ± 0.004 |
| UCCUGCUACAGCUUGCAUAGAAAUUAGUUA | 0.2 ± 0.021 | 0.00609 ± 0.0021 |
| UCCACCAACAGCUUGCAAAGUAUUUAGUUA | 1.05 ± 0.041 | 0.0371 ± 0.0082 |
| UCGACCUACACCUUGCAUAGUAAUUAGUUA | 0.734 ± 0.068 | 0.0226 ± 0.004 |
| UCCUGGAUGAGCUUGCAUAGUAUUUGGUUA | 0.635 ± 0.046 | 0.0303 ± 0.0095 |
| UCCUCCUACAGCUUGCAUAGUAUUUAGUGA | 0.374 ± 0.053 | 0.0212 ± 0.0042 |
| UCCAGCUACAGCUUGCAUAGUAUUUUGUUA | 0.745 ± 0.034 | 0.0287 ± 0.0046 |
| UCCUGGAACAGCUUGCAUAGUAUUAAGUUA | 0.551 ± 0.04 | 0.0206 ± 0.0047 |
| UCCUGGUACAGCUUGCAUAGUAUUUAGAAA | 0.262 ± 0.033 | 0.00635 ± 0.003 |
| UCCUCCUACAGCUUGCAUAGAAUUUAGUUA | 0.464 ± 0.042 | 0.0224 ± 0.0067 |
| UCCUGGAUGAGCUUGCAGAGUAUUUAGUUA | 0.31 ± 0.022 | 0.0283 ± 0.0086 |
| UCCUGGUACAGCUUGCAUAGUAUUUAGUUU [g2:g24:cont:t1U] | 0.971 ± 0.038 | 0.064 ± 0.0098 |
| UCCUGGAUCAGCUUGCAUAGUUAUUAGUAA | 0.0234 ± 0.01 | 0.0035 ± 0.0024 |
| UGGGACCUACAGCUUGCAUAGUAUUUAGUUA | 1.11 ± 0.1 | 0.134 ± 0.033 |
| UGGAGCUACAGCUUGCAUAGUAUUUAGAAA | 0.369 ± 0.032 | 0.0159 ± 0.0038 |
| UGGACCUACACGUUGCAUAGUAUUUAGUUA | 1.09 ± 0.061 | 0.0236 ± 0.0048 |
| AGGACGUACAGCUUGCAUAGUAUAUAGUUA | 0.713 ± 0.084 | 0.0387 ± 0.01 |
| AGGACCUACAGCUUGCAUAGUUUUUAGUAA | 0.292 ± 0.028 | 0.0226 ± 0.0061 |
| UCGACCUACAGCUUGCAUAGUAUUAUGUUA | 0.434 ± 0.029 | 0.0214 ± 0.0048 |
| UCGACCUACUCGUUGCAUAGUAUUUAGAAA | 0.19 ± 0.023 | 0.00251 ± 0.0018 |
| AGGACCUACAGCUUGCAUUGUAUUAAGUUA | 0.455 ± 0.041 | 0.0136 ± 0.0037 |
| UCCUGGAUCAGCUUGGAUAGUAUUAAGUUA | 0.258 ± 0.033 | 0.0129 ± 0.0046 |
| UCCUCCUACACCUUGCAUAGUAUAUAGUUA | 0.51 ± 0.055 | 0.0176 ± 0.0031 |
| UGGACCUACAGCUUGCAUUGUUUUUAGUUA | 0.0869 ± 0.01 | 0.00751 ± 0.0024 |
| UCCUCCUACAUCUUGCAUAGUAUUUAGUUA | 1.17 ± 0.038 | 0.0605 ± 0.01 |
| AGGACCUACAGCUUGCAUAGAAUAUAGUUA | 0.373 ± 0.037 | 0.0174 ± 0.0066 |
| UGGACCUACAGCUUGCAUAGUAUUUAGGUUA | 0.765 ± 0.064 | 0.0376 ± 0.0065 |

| Sequence | pre-steady-state target cleavage rate [1] | pre-steady-state target cleavage rate [2] |
| --- | --- | --- |
| UCCUCCUACAGCUUGCAUGGUAUUUAGUUA | 1.66 ± 0.078 | 0.0582 ± 0.011 |
| UCCUGCUACAGCUUGCAUACUAUUUAGUUA | 0.364 ± 0.018 | 0.0347 ± 0.0053 |
| UCCUGGAUGUCCUUGCACAGUAUUUAGUUA | 0.181 ± 0.027 | 0.0108 ± 0.0026 |
| UCCUCCUACAGCUUGCAUAGUUUUUAGUAA | 0.246 ± 0.027 | 0.0137 ± 0.0029 |
| UCCUGGAACAGCUUGGUUAGUAUUUAGUUA | 0.95 ± 0.041 | 0.0108 ± 0.0031 |
| UCCUGGUACAGGUUGCAUUGUAUUUAGUUA | 0.545 ± 0.064 | 0.0136 ± 0.004 |
| UCCUGGAUCAGGUUGCAUAGUAUUUAGAAA | 0.12 ± 0.028 | 0.00268 ± 0.0021 |
| UCCACCUACAGACUUGCAUAGUAUUUAGUUA | 0.606 ± 0.06 | 0.0272 ± 0.0043 |
| UGGACCUACAGGUUGCAUAGUAUUUAGUUA | 1.14 ± 0.088 | 0.0575 ± 0.0096 |
| UCCUGGAUCAGGUUGCAUAGUAUUUAGAUA | 0.165 ± 0.027 | 0.00293 ± 0.0029 |
| UCGACCUACAGCUUGCAUAGUAUUUUAGUUA | 1.21 ± 0.053 | 0.0302 ± 0.0073 |
| UCGACCUACAGGUUGCAUAGUAUUUAGAAA | 0.411 ± 0.042 | 0.00412 ± 0.0021 |
| UCCUGGUACAGCGUGCAUAGUAUUUAGUUA | 0.515 ± 0.064 | 0.0243 ± 0.0045 |
| UCCACCUACAGCUUGGAUAGUAUUUUGUUA | 0.712 ± 0.046 | 0.0292 ± 0.0047 |
| UCCUGGAUGAGCAUGCAUAGUAAUUAGUUA | 0.102 ± 0.013 | 0.00545 ± 0.0019 |
| UCCUGGAUGAGUUUGCAUAGUAUUUAGUUA | 0.566 ± 0.063 | 0.0314 ± 0.0067 |
| UCGACCUACAGCUUGCUAUGUAUUUAGUUA | 0.152 ± 0.015 | 0.00452 ± 0.0012 |
| UCCUCCUACAGCCUGCAUAGUAUUUAGUUA | 1.18 ± 0.038 | 0.056 ± 0.0094 |
| UCCUGGAUCAGCUAGCAUAGUAUUUACUUA | 0.391 ± 0.026 | 0.009 ± 0.0021 |
| UCCUGGAUCACCUUGCAUAGUAAUUAGUUA | 0.101 ± 0.022 | 0.00572 ± 0.0018 |
| UCCUGGUACAGCUUGGUUAGUAUUUAGUUA | 0.606 ± 0.042 | 0.0136 ± 0.003 |
| UCCUCCUACAGCUUGCUAUGUAUUUAGUUA | 0.145 ± 0.018 | 0.00383 ± 0.0014 |
| UCCUGGAUGAGCUUGCAUAGUAUUUAGUUG [g2:g21:cont:t1G] | 0.624 ± 0.056 | 0.0413 ± 0.0092 |
| UCCUGCUACAGCUUGCAUAGUAUAUACUUA | 0.111 ± 0.017 | 0.00755 ± 0.0036 |
| UCCUGGAUCAGGUUGCAUAGUAUUUUGUUA | 0.302 ± 0.024 | 0.00654 ± 0.0026 |
| UCCAGGAACAGCUUGCAUAGUAUUUAGUAA | 0.57 ± 0.047 | 0.0391 ± 0.0081 |
| UCCACCAACAGCUUGCAUAGUUUUUAGUUA | 0.367 ± 0.021 | 0.0293 ± 0.0067 |
